# Source: ChEMBL document CHEMBL4888484, “Replenishing the malaria drug discovery pipeline: Screening and hit evaluation of the MMV Hit Generation Library 1 (HGL1) against asexual blood stage Plasmodium falciparum ,using a nano luciferase reporter read-out” (2022)
# In all, about 150,000 compounds went through this assay and about 540 (0.36%) showed an effect of 50% or more. This is one part of the list.
# System: Plasmodium falciparum
# Assay: Primary screen in NF54 nanoGlo assay, in single point, at 2uM, 72h; a lower Z score goes with more inhibition
# Type: functional, Erythrocyte
# Details: timepoint 72 hour
SMILES,% Inhibition [%],Z score
O=C(Nc1cc(F)ccc1F)N1CC[C@H](Oc2ncccc2C(=O)N2CCOCC2)C1,5,-0.78
CCn1ccc(-c2cc(C(=O)Nc3cccc(Cl)c3C)c3c(C)noc3n2)n1,28,-3.22
CCOCCC1(CNC(=O)c2cc(C)n[nH]2)CCC1,32,-4.64
CCn1nccc1C(=O)N1C[C@@H](Oc2ccccc2)C[C@@H]1C(=O)N1CCOCC1,-11,2.19
CCc1cccc(NC(=O)Cn2ccc3ccc(-c4nnc(C)o4)cc32)c1,78,-9.29
CCCN(CC(=O)N(CCc1ccccc1)Cc1ccco1)C(=O)Nc1cccc(C#N)c1,-14,1.77
NC(=O)CC1CCN(C(=O)c2c3c(nc4ccccc24)CCC3)CC1,-3,0.41
Cc1cc2c(cc1S(=O)(=O)Nc1ccc(Cl)cc1F)OCC(=O)N2Cc1noc(C2CC2)n1,10,-1.19
C[C@H](NC(=O)N1CCC(CN2CCc3ccccc32)CC1)c1ccncc1,-8,1.04
O=C(CNc1ccc(-n2cnnn2)cc1)NC1CCCCC1,-10,1.48
Cc1nnc(C(C)N2CCOC(C3CCCCC3)C2)o1 (stereo unspecified),-27,3.15
CN1C(=O)N([C@@H]2COc3ccc(F)cc3C2)C(=O)C1(C)C,-8,1.08
O=C(CCc1cn[nH]c1)N[C@@H]1CCC[C@H]1OCc1ccccc1,-2,0.31
C=CCN(C(=O)c1cc(COc2cc(C)c(Cl)c(C)c2)on1)[C@H]1CCS(=O)(=O)C1,0,-0.01
Cc1ccccc1N1CCN(C(=O)c2nccnc2-c2nc3ccccc3s2)CC1,12,-1.38
CCCc1nc(C)c(CNS(=O)(=O)CCC)s1,-17,2.19
Cc1ncsc1CCC(=O)N[C@H]1CC(=O)N(c2ccccc2)C1,5,-0.96
O=C(Nc1nnc(-c2cc(F)ccc2F)s1)c1csnn1,-20,2.7
CCC(Oc1ccc2c(c1)C(c1ccccc1)N(Cc1ccccc1F)CC2)C(=O)NCCC(C)C (stereo unspecified),-11,1.96
CCN(CCOc1cccc(C)c1)C(=O)c1ccc(-c2cnn(CC)c2)cc1,14,-1.86
Cc1nn(C(C)C)cc1-c1cccc2ccnn12,-5,1.05
Cc1cc(NC(=O)N[C@H]2CCCC[C@@H]2OCc2ccccc2)n(C)n1,-5,0.67
CN1C(=O)C2(CCN(c3ncc(F)cn3)CC2)c2ccccc21,6,-0.74
